These results are taken from publication PMC10668032.

The other results are listed elsewhere or left out. At the low end of the ranking, values are background and their order means little.

This assay deals with SIX1 homeodomain (reference allele) (UniProt Q15475). Description: universal protein binding microarray. Conditions: Universal all-10-mer PBM (8x60K, AMADID 030236), 300 nM GST-tagged protein, Alexa Fluor 488 anti-GST; buffer, salt, pH and temperature not stated; high values mean tight binding; most listed sequences are background and not binding sites; double strand, one strand shown.
With GAAGGTGA, the binding signal amounted to 0.0812 E-score. Turning to ACGCCGTG, the binding signal is -0.0407 E-score. For GTTTACCA, the binding signal was -0.113 E-score. As for AGGATAAG, the binding signal is 0.181 E-score.

As to AAATTTCA, the binding signal is -0.347 E-score. For the sequence GGCGTCAA, the binding signal is -0.206 E-score. The same measure for GATTTCGC: -0.103 E-score; for GCTGGGCC: -0.314 E-score. In the case of GCGGGGCC, the binding signal was -0.138 E-score. On to GGGCAACC, for which the binding signal was -0.0964 E-score. Regarding CTGACAAG, the binding signal is -0.215 E-score. AAAAGACT: the binding signal is -0.123 E-score. As for TACCGCAA, the binding signal was 0.0325 E-score. As to ACACACAC, the binding signal is -0.0151 E-score. Next, AGCATTGA: -0.0617 E-score; ACGAGAAA: -0.189 E-score; CAGCCACG: -0.217 E-score. In the case of GCTGCAAA, the binding signal was -0.16 E-score.

In the case of AAATGATG, the binding signal was -0.0703 E-score. CAGGCCCC: the binding signal is -0.276 E-score. As for ACAGCGCC, the binding signal is -0.133 E-score. AGTTGTGA: the binding signal was -0.0336 E-score. Next, ATAGGAAG: 0.0198 E-score; CTGGGGCA: -0.156 E-score; AACCAGGA: -0.0447 E-score. As to CGTGGTAG, the binding signal is -0.0943 E-score. As to GTGTATGA, the binding signal came out at 0.17 E-score.

On to TTGGGAAA, for which the binding signal was -0.081 E-score. Next, CAATTACC: -0.27 E-score; TATAAGGA: 0.136 E-score. For the sequence CCAGTTAC, the binding signal is -0.0806 E-score. As to AAGACTCA, the binding signal is -0.0424 E-score.

Take AGGTGATA: the binding signal worked out at 0.418 E-score. Consider AGGACCGC, for which the binding signal is -0.193 E-score. Regarding CGTTCTAG, the binding signal is -0.0187 E-score. Take ATGTCAAA: the binding signal is -0.206 E-score.

With GCGTGGCA, the binding signal was -0.0799 E-score.

As to ATGCCCGG, the binding signal was found to be 0.0644 E-score. As for CGGCTCTC, the binding signal is -0.0899 E-score. Turning to ATCCCAAT, the binding signal is 0.236 E-score. Next, ACACTGCT: -0.262 E-score; ACTAGGCC: -0.238 E-score; ATCGAGGC: 0.0267 E-score. CGTACATC: the binding signal is -0.0294 E-score. Turning to GCCGACAA, the binding signal is -0.036 E-score. Consider ACCAGAAC, for which the binding signal is -0.0287 E-score. As for CGATCATA, the binding signal came to 0.276 E-score.

For ACTCTTCG, the binding signal is -0.04 E-score.

As for GAGGAGGC, the binding signal was -0.0375 E-score. Take ATCACGAG: the binding signal is 0.133 E-score. As for ACGATTCG, the binding signal is -0.177 E-score. As for ATCAAGAA, the binding signal is -0.00943 E-score.

On to ACGGCAGA, for which the binding signal is 0.0497 E-score. For CTCGGTAC, the binding signal was -0.0172 E-score. As for AGGCTTCA, the binding signal is -0.0937 E-score. AGGGCCGC: the binding signal is -0.157 E-score.

On to CTGAGAAA, for which the binding signal was -0.124 E-score. With GGAGCCTA, the binding signal is 0.0353 E-score.

For the sequence AAAATCTT, the binding signal was -0.359 E-score. Next, GTTTTTTA: -0.0417 E-score. Turning to CGGTAGTC, the binding signal was -0.0497 E-score. As for CTGGTTCA, the binding signal was -0.0617 E-score. Regarding AAAGCAAC, the binding signal is -0.225 E-score. With CCACAATA, the binding signal is 0.138 E-score.

As to GTGACAAA, the binding signal came out at 0.136 E-score. The same measure for CCAAAAGC: -0.223 E-score; for TACACGAA: 0.0502 E-score; for AATCCTCT: 0.0262 E-score. On to ACTGCAGA, for which the binding signal was -0.269 E-score.

ACCAAATC: the binding signal came to 0.0654 E-score.

For the sequence AAATACAG, the binding signal is -0.0588 E-score.

Take ATAATTAC: the binding signal was -0.0249 E-score. For the sequence CAGCATCA, the binding signal was 0.131 E-score. Turning to CAACTCCC, the binding signal is -0.109 E-score. CGCCTACG: the binding signal is -0.148 E-score.

In the case of CTGTGTTC, the binding signal was -0.199 E-score. For the sequence ATAAGGAA, the binding signal was -0.169 E-score. Turning to CTCCACTA, the binding signal came out at 0.0286 E-score. Regarding ATGTACAC, the binding signal came out at 0.125 E-score.

As for AGTGGCCA, the binding signal was -0.0931 E-score. As to CCAGTAAC, the binding signal is -0.0929 E-score. In the case of CGGACTTC, the binding signal was -0.243 E-score. For the sequence ATCGCCTC, the binding signal is 0.216 E-score. As for GCATGAAC, the binding signal is -0.159 E-score.

Turning to TATGGGGA, the binding signal was determined as 0.232 E-score. As for CCGCGGGA, the binding signal was 0.103 E-score. Next, AATTCTCT: -0.329 E-score; ACGGTCCG: -0.135 E-score. For ATGCTTCC, the binding signal is -0.145 E-score.

AAGACCGC: the binding signal is -0.0943 E-score. Regarding CGTGTCTA, the binding signal stood at 0.11 E-score. As to CTAAGGCC, the binding signal is -0.173 E-score. Regarding CGTCAGCA, the binding signal was -0.179 E-score. Regarding AAAACTGA, the binding signal is -0.134 E-score. The same measure for CATCATTC: -0.051 E-score. Take GACTGTAA: the binding signal is -0.142 E-score. With AGCTGTAC, the binding signal was -0.0975 E-score.

With CCGACCAG, the binding signal is -0.0115 E-score. The same measure for CGATGGTC: -0.111 E-score; for GACAAACC: -0.181 E-score; for AGCCAATG: -0.0313 E-score.

Take TGATACCA: the binding signal turned out to be 0.481 E-score.

Turning to CAGAGGGC, the binding signal was -0.263 E-score. The same measure for GCTTTGAA: -0.148 E-score. Consider AACGACGT, for which the binding signal is -0.235 E-score. As to GTGCGCAC, the binding signal was -0.131 E-score. With CTGCGAGA, the binding signal was -0.0804 E-score.

In the case of GGGAGTAC, the binding signal amounted to 0.0436 E-score. As for CATTGCCC, the binding signal was -0.155 E-score. On to CTCTCCCA, for which the binding signal was -0.22 E-score. The same measure for ACCGATAT: 0.396 E-score; for CCAGAAGA: -0.112 E-score; for AGTGGCAG: -0.248 E-score. In the case of GAGGGTAA, the binding signal stood at 0.00963 E-score. As for CAATATTC, the binding signal stood at 0.104 E-score.

CCACTAAA: the binding signal is -0.146 E-score. For CATGTTGC, the binding signal is -0.248 E-score. In the case of CAGGGGGG, the binding signal was -0.162 E-score. Consider GTTTCCGA, for which the binding signal was -0.0597 E-score.

For the sequence CTTCACGC, the binding signal was -0.0507 E-score. For CCTTTCCA, the binding signal was -0.012 E-score. Next, CAGACAGC: -0.218 E-score; AGAGTAAA: -0.0531 E-score. As to ATAGATCC, the binding signal stood at 0.302 E-score.

As to CGTTATAG, the binding signal is 0.0166 E-score. For GACCACAC, the binding signal was -0.081 E-score. With GCTAAAAA, the binding signal is -0.2 E-score.

With GAGCAGCC, the binding signal is -0.123 E-score.

In the case of AGCGATCC, the binding signal was 0.356 E-score.

Turning to ATATAACC, the binding signal was found to be 0.177 E-score.

In the case of CTGTAAAC, the binding signal was -0.173 E-score. The same measure for CCCGGATC: 0.45 E-score; for CAAATGTA: -0.0333 E-score. For CAAAGCTC, the binding signal is -0.158 E-score. As for CAACCAGG, the binding signal is -0.108 E-score. Next, GGTACCAA: -0.0758 E-score; GTGGTTGA: -0.296 E-score. For ATGGTCCG, the binding signal came out at 0.00411 E-score. The same measure for ATGTTCGG: -0.101 E-score; for CAACTGTA: -0.0799 E-score. For AGCTTCGG, the binding signal was -0.0517 E-score.

As to ACCGACCA, the binding signal is -0.0186 E-score. Regarding TCACGGGA, the binding signal was -0.0241 E-score.

On to AGCGTCAT, for which the binding signal is -0.0435 E-score. Next, AAGTATCC: 0.388 E-score. Turning to ATTTTAGC, the binding signal was -0.116 E-score. The same measure for CTCCAAGC: -0.0977 E-score; for ATCATGAT: 0.398 E-score; for GCCGGTAC: -0.0205 E-score. As for GATCAAGA, the binding signal worked out at 0.191 E-score. Regarding CGTTAAGC, the binding signal was -0.11 E-score. The same measure for CTCTTCAG: -0.164 E-score; for ATTCTGGG: -0.0634 E-score. As for AATATACA, the binding signal was 0.222 E-score.

Turning to GAGAACCA, the binding signal came out at 0.0679 E-score. In the case of AGTCCACG, the binding signal was -0.171 E-score. Turning to AGATCTAA, the binding signal amounted to 0.116 E-score. In the case of ACCTTGCT, the binding signal is -0.0389 E-score. In the case of CTTCGTTA, the binding signal was -0.151 E-score. As for AGTCCGGG, the binding signal is -0.143 E-score. Turning to ACTCCGGG, the binding signal came out at 0.0872 E-score. For AGAAGTAT, the binding signal was found to be 0.297 E-score. Next, GGCCCCAA: -0.245 E-score; ACCCACCT: -0.115 E-score.

Take AAGCCTAT: the binding signal worked out at 0.144 E-score.

Take ACACATGG: the binding signal is -0.194 E-score. Next, CATCGGCC: -0.144 E-score; AACCAAAA: 0.00971 E-score. Turning to ATACCGCG, the binding signal was found to be 0.377 E-score. Next, ACTTTGTC: -0.25 E-score; ACAAAGCG: -0.22 E-score. Next, TCGGGCAA: -0.116 E-score.
